Laboratory results as given in PubChem BioAssay AID686979 (National Center for Advancing Translational Sciences (NCATS), 2013).
The campaign covered roughly 420,000 compounds. About 50,000 (12%) were called active. This list was built around the results that the source calls inconclusive (neither active nor inactive); the mix of calls is not that of the screen. Calls come from the whole dose curve; as a rule, active = well fitted inhibition curve with a large enough effect; inconclusive = small, poorly fitted or top-dose-only effect; inactive = flat fitted curve, though single readings scatter. No potency is given beside an inconclusive call; the fits are too rough.

Assay: qHTS for Inhibitors of human tyrosyl-DNA phosphodiesterase 1 (TDP1): qHTS in cells in presence of CPT; note: nearly all actives have a fitted effect of over 55% in size
Conditions: chicken DT40 Tdp1-/-;hTDP1 cells + 20 nM CPT, ATP luminescence, 48 h; activity change, negative = growth inhibition: at 46.2 µM (top of the series) unless noted
Summary of the method: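 Cell growth measured by CellTiter-Glo luminescence after a minimum 48 h, 37 C compound exposure with 20 nM CPT in Tdp1-knockout DT40 cells stably expressing hTDP1, seeded 400/well; qHTS titration format.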
% is set by controls: 0 for no effect and ±100 for the full control effect; potency is the fitted concentration of half-maximal effect; tags give direction and shape of the fitted curve.

| SMILES | Potency | activity change, negative = growth inhibition |
| --- | --- | --- |
| O=c1c(-c2ccc(F)cc2)nc2cncnc2n1Cc1ccccc1 | inconclusive [inhibitor, single point] |  |
| Oc1ccc(C2Nc3cccc4cccc(c34)N2)c(O)c1 | active: 4.11 µM |  |
| CN(NC(=O)c1ccc(Cl)cc1)c1nc(-c2ccccc2)nnc1C(F)(F)F | active: 20.6 µM |  |
| CCN1C[C@@H]2[C@@H]3C(=O)N(C)C(=O)[C@@H]3[C@](Cc3ccccc3)(C1=O)N2C(=O)c1ccc(Cl)cc1 | inactive |  |
| C=CC(=O)N1c2ccccc2Sc2ccc(NC(=O)OCC)cc21 | inconclusive [inhibitor, single point] |  |
| Cc1ccc(NC(=O)CN2C(=O)COc3ccc(S(=O)(=O)Nc4ccccc4)cc32)c(C)c1 | inconclusive [inhibitor, single point] |  |
| Cc1cc(Cl)ccc1OCC(=O)Nc1cccc(-c2nc3ccccc3o2)c1 | inconclusive [inhibitor, single point] |  |
| O=C(OC1CCOC1=O)c1ccccc1C(=O)c1ccc(Cl)c([N+](=O)[O-])c1 (centres undefined) | inconclusive [inhibitor, single point] |  |
| CC(NC(=O)c1cc2c(s1)CCCC2)C(C)(C)C (centres undefined) |  | inconclusive: -35.3% [inhibitor] |
| CCN(CC(=O)Nc1ccc2c(c1)OCCO2)S(=O)(=O)c1ccccc1 | inactive |  |
| O=[N+]([O-])c1ccc(C(=S)N2CCN(c3ccc(F)cc3)CC2)cc1 | inconclusive [inhibitor, single point] |  |
| CNc1ncnc2c1ncn2[C@H]1CN(Cc2ccc(-c3ccccc3)cc2)C[C@@H](CO)O1 | inconclusive [inhibitor, single point] |  |
| Cc1csc(-c2cnn(-c3ccccc3)c2NC(=O)c2ccccc2)n1 |  | inconclusive: -35.5% [inhibitor] |
| COc1cc(CCN(C(C)=O)C2C(=O)Nc3ccccc3N=C2c2ccc3c(c2)OCO3)cc(OC)c1 (centres undefined) | inactive |  |
| CC(Cc1ccccc1)C(=O)N[C@@H](CO)Cc1ccccc1 (some centres undefined) | inactive |  |
| O=C(Nc1cccc2ccccc12)OC1C=CS(=O)(=O)C1 (centres undefined) | inconclusive [inhibitor, single point] |  |
| COC(=O)c1nc(NC(=O)c2ccccc2)n[nH]1 | inconclusive [inhibitor, partial curve] |  |
| Cc1cc(C)c(NC(=O)CSc2nc3ccncc3[nH]2)c(C)c1 | inconclusive [inhibitor, single point] |  |
| O=C(/C=C/c1cn(-c2ccccc2)nc1-c1ccc2c(c1)OCCO2)NCCCN1CCOCC1 | inconclusive [inhibitor, single point] |  |
| CC(C)(C)c1ccc(S(=O)(=O)N2CCSC2)cc1 | inactive |  |
| CC1CCc2sc(-c3n[nH]c(=S)o3)cc2C1 (centres undefined) | inconclusive [inhibitor, single point] |  |
| C[C@@]12C(=O)N(Cc3ccc(F)cc3)CC(=O)N1[C@H]1c3cc(Cl)ccc3OC[C@@H]1[C@@H]2c1ccccc1 | active: 23.1 µM |  |
| COc1ccc([C@@H]2[C@@H]3C(=O)N(C(C)(C)C)C(=O)[C@@H]3[C@]3(Cc4ccccc4)C(=O)N(c4ccc(C(F)(F)F)cc4)C(=O)N23)cc1 | inconclusive [inhibitor, single point] |  |

| SMILES | Potency | activity change, negative = growth inhibition |
| --- | --- | --- |
| COc1ccc(C=CC(=O)C=CC=Cc2ccccc2)cc1 | inconclusive [inhibitor, single point] |  |
| COc1cnc(-c2cccc(C(F)(F)F)c2)c(NC(=O)c2cc3ccccc3s2)n1 | active: 18.4 µM |  |
| COc1cccc(CNC(=O)c2nnn(-c3ccc(OC(F)(F)F)cc3)c2N)c1 | inconclusive [inhibitor, partial curve, poor fit] |  |
| Cc1cn(C(=O)c2ccccc2)c(=S)n1-c1ccc(Cl)cc1 | inconclusive [inhibitor, partial curve] |  |
| OC[C@@H]1CN(Cc2cccs2)C[C@H](n2cnc3c(NCc4ccc(F)cc4)ncnc32)O1 | inconclusive [inhibitor, single point] |  |
| O=C(Nc1nc2c(s1)CN(Cc1ccccc1)CC2)c1c(F)cccc1F | inactive |  |
| Cc1ccc(C2=NC(c3ccccc3)=Nc3ccc(Cl)cc3N2)cc1 | inconclusive [inhibitor, single point] |  |
| CN(C)c1nc(N)c(C#N)c(C#N)c1C#N | inconclusive [inhibitor, single point] |  |
| CCN1C(=O)[C@H]2[C@@H](c3ccc(-c4ccc(F)cc4)cc3)N[C@@](CC(C)C)(C(=O)OC)[C@H]2C1=O | active: 13 µM |  |
| COCCCNC(=O)C1CCN(C(=O)c2oc3cc4sc(N(C)C)nc4cc3c2C)CC1 | inactive |  |
| Cc1cccc(NC(=O)c2ccc(N3CCOCC3)c([N+](=O)[O-])c2)n1 | inconclusive [inhibitor, single point] |  |
| CCOC(=O)c1sc2nc(SCC(=O)N(CC)CC)n(CCCN3CCCC3=O)c(=O)c2c1C | active: 18.4 µM |  |
| CC(O/N=C/c1ccc(OC(F)F)cc1)C(=O)Nc1cccc(S(=O)(=O)N2CCOCC2)c1 (centres undefined) | inconclusive [inhibitor, single point] |  |
| COc1ccccc1NC(=O)CSc1nccn1Cc1ccccc1 | inactive |  |
| Cc1cc(C)c2c(=O)cc(C(=O)NCc3ccc(S(N)(=O)=O)cc3)oc2c1 | inactive |  |
| COc1ccc(-c2nc3cnc(Nc4cccc(OC)c4)nc3n(C[C@H]3CCCO3)c2=O)cc1 | inconclusive [inhibitor, partial curve, poor fit] |  |
| Cc1ccc(C(C(=O)NC2CCCC2)N(C(=O)CCC(=O)Nc2cc(C)on2)c2ccccc2)cc1 (centres undefined) | inconclusive [inhibitor, single point] |  |
| COCCCNC(=O)CSc1nc(-c2ccc(OC)c(OC)c2)[nH]c1-c1ccc(F)cc1 | inactive |  |
| O=C(NCCc1ccccc1)c1ccc2c(c1)N(Cc1ccccc1)C(=O)CS2=O (centres undefined) | inconclusive [inhibitor, single point] |  |
| COC(=O)c1c(NC(=S)NN2CCN(C)CC2)sc2c1CCC(C)C2 (centres undefined) | inconclusive [inhibitor, single point] |  |
| COC(=O)c1cc2oc3ccccc3c2n1Cc1c(C)cc(C)cc1C | inactive |  |
| CN(C)c1ccc(/C=C2\CCc3cc(N)ccc32)cc1 | inactive |  |
| Cc1c(Cl)cccc1NC(=S)N(C)CCC#N | inactive |  |

| SMILES | Potency | activity change, negative = growth inhibition |
| --- | --- | --- |
| CCc1nnc(NC(=O)CSc2nnc(C3CCCCC3)n2-c2ccccc2)s1 | inconclusive [inhibitor, partial curve, poor fit] |  |
| COCCN(C(=O)COC(=O)C1(C)CC1(Cl)Cl)c1c(N)n(Cc2ccccc2)c(=O)[nH]c1=O (centres undefined) | inactive |  |
| Cc1cc(C)cc(NC(=O)Cn2c(=O)n(Cc3ccco3)c(=O)c3oc4ccccc4c32)c1 | inconclusive [inhibitor, partial curve] |  |
| Cc1ccc(NC(=O)c2ncn(CCCNCC(C)c3ccccc3)n2)cc1C (centres undefined) | inconclusive [inhibitor, partial curve, poor fit] |  |
| Cc1cc(-c2ccnc(-n3ncc(C(=O)N4CCCCC4c4cccnc4)c3C3CC3)n2)c(C)s1 (centres undefined) |  | inactive: 8.36% [at 9.04 µM] |
| Cc1nc2cccnc2n1-c1cccc(C(=O)NCCc2ccc(S(N)(=O)=O)cc2)c1 | inactive |  |
| O=C(Nc1cc(Cl)ccc1O)c1cc(-c2ccco2)on1 | inactive |  |
| COc1ccc(CNC(=O)COc2cc3c(c4oc(=O)cc(C)c24)CCC(C)(C)O3)cc1 | inconclusive [inhibitor, single point] |  |
| CCOC(=O)CC1(C)N(S(=O)(=O)c2ccc(C)cc2)c2ccccc2N1S(=O)(=O)c1ccc(C)cc1 | inconclusive [inhibitor, single point] |  |
| CC1(C)CC(=O)C(C=Nc2ccc(C(=O)c3ccccc3)cc2N=CC2=C(O)CC(C)(C)CC2=O)=C(O)C1 | inconclusive [inhibitor, partial curve, poor fit] |  |
| c1ccc(-c2ncc(CSc3nncn3-c3ccccc3)s2)cc1 | inconclusive [inhibitor, single point] |  |
| CCCCOC(=O)C1=C(C)Nc2nnnn2C1c1ccccc1Cl (centres undefined) | inconclusive [inhibitor, single point] |  |
| O=C1c2ccccc2CN1CCNC(=S)NC1CCCCC1 | inactive |  |
| COC(=O)c1c(NC(=O)CN2CCCc3ccccc32)sc(C)c1C | active: 20.6 µM |  |
| CCCNC(=O)C1(C)CCN1C(=O)C/C=C/c1ccccc1 (centres undefined) | inactive |  |
| O=C(CSc1nnc(-c2ccncc2)n1-c1ccccc1)NC1CC1 | inactive |  |
| COc1ccc(-c2n[nH]c(C)c2-c2ccc(OC)c(OC)c2)c(O)c1 | active: 20.6 µM |  |
| COc1ccc(S(=O)(=O)Nc2cccc3c2O[C@H](CN(C)S(=O)(=O)c2ccc(Cl)cc2)[C@H](C)CN([C@H](C)CO)C3=O)cc1 | inconclusive [inhibitor, single point] |  |
| CS(=O)(=O)c1ccc(C(=O)OCC(=O)N2CCc3ccccc32)cc1[N+](=O)[O-] | active: 3.55 µM |  |
| O=C(c1cccc([N+](=O)[O-])c1)c1ccc2[nH]c(=O)[nH]c2c1 | inactive |  |
| CN(C)c1ccc(C2NCC(CCl)O2)cc1 (centres undefined) | inactive |  |
| Cc1ccc(C(C(=O)NC2CCCCC2)N(C(=O)Cc2c[nH]c3ccccc23)c2ccccc2)o1 (centres undefined) | inconclusive [inhibitor, single point] |  |
| CCc1nc2ccc(C(=O)N(C)Cc3ccco3)cn2c1N(C)Cc1ccc(OC)cc1 | inconclusive [inhibitor, single point] |  |
